This is one part of the list. Cleavage of a single-stranded DNA pool by Rep nickase domains was read by sequencing (1 h at 37 °C, 3 µM enzyme); the outer parts of the 90-letter strands are left off. Values are log2 of uncut reads against the no-enzyme pool; uncut sequences lie near 0, cut ones below; no hit call is given. Because reads are shares of a total, they shift together; where an enzyme cuts many sequences, the uncut ones exceed 0.
Key:
Test in all cases: uncleaved DNA left, log2 of reads against the no-enzyme library (log2 ratio); higher = less cleavage (more negative = more Rep cleavage of the k-mer); sequences stand for … in CTCGTCCG…ACCGGAGA
[1] = tested on: T1, Rep nickase domain of Muscovy duck circovirus
T1 sequence (protein, residues 1-111, tag omitted): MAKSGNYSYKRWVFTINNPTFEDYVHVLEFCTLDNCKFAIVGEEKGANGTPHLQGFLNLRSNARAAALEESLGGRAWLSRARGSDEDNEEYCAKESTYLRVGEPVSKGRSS
Method: (§1)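 A pool of 90-nt single-stranded DNAs with seven random bases just before the constant AC of the nick site (name = the seven bases) was cut by 3 µM recombinant His6-SUMO-tagged Rep nickase domain (300 nM DNA, 50 mM HEPES pH 8.0, 50 mM NaCl, 1 mM MnCl2, 1 h, 37 °C, three replicates). Uncut DNA was amplified and sequenced.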

[2] = tested on: T2, Rep nickase domain of banana bunchy top virus
T2 sequence (protein, residues 1-94, tag omitted): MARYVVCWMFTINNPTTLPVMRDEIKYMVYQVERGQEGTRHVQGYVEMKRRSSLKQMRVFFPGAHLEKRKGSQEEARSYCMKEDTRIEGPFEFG
Method: as §1

[3] = tested on: T3, Rep nickase domain of cabbage leaf curl virus
T3 sequence (protein, residues 1-116, tag omitted): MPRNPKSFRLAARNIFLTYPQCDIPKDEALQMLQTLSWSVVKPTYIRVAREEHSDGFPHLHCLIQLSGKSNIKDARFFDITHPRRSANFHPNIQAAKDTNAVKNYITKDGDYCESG
Method: as §1

[4] = tested on: T4, Rep nickase domain of chickpea chlorotic dwarf virus
T4 sequence (protein, residues 1-124, tag omitted): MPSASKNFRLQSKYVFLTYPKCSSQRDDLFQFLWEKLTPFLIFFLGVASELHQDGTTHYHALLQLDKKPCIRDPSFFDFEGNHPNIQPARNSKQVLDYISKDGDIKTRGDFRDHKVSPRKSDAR
Method: as §1

[5] = tested on: T5, Rep nickase domain of faba bean necrotic yellows virus
T5 sequence (protein, residues 1-98, tag omitted): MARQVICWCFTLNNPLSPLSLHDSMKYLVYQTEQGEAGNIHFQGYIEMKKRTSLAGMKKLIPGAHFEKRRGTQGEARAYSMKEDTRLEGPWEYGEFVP
Method: as §1

[6] = tested on: T6, Rep nickase domain of maize striate mosaic virus
T6 sequence (protein, residues 1-117, tag omitted): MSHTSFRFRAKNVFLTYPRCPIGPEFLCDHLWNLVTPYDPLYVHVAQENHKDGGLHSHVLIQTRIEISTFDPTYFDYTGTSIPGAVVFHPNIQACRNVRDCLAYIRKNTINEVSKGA
Method: as §1

[7] = tested on: T7, Rep nickase domain of porcine circovirus 2
T7 sequence (protein, residues 2-116, tag omitted): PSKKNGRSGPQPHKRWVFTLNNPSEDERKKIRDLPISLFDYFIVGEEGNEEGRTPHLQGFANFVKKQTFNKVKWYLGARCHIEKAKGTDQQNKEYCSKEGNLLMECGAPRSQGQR
Method: as §1

[8] = tested on: T8, Rep nickase domain of tomato golden mosaic virus
T8 sequence (protein, residues 1-124, tag omitted): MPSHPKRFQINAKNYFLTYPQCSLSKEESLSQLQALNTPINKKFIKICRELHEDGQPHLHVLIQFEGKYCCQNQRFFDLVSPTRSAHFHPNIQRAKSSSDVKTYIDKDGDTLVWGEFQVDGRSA
Method: as §1

[9] = tested on: T9, Rep nickase domain of tomato yellow leaf curl virus
T9 sequence (protein, residues 1-136, tag omitted): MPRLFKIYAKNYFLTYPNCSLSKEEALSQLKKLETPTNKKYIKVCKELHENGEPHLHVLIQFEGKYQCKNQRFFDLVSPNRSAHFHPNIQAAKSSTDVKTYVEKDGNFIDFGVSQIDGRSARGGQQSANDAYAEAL
Method: as §1

[10] = tested on: T10, Rep nickase domain of wheat dwarf virus
T10 sequence (protein, residues 1-137, tag omitted): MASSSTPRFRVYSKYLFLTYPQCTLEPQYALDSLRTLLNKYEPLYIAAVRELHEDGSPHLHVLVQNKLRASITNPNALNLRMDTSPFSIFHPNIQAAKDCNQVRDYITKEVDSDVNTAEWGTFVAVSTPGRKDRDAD
Method: as §1

Sequence | uncleaved DNA left (log2) [1] | uncleaved DNA left (log2) [2] | uncleaved DNA left (log2) [3] | uncleaved DNA left (log2) [4] | uncleaved DNA left (log2) [5] | uncleaved DNA left (log2) [6] | uncleaved DNA left (log2) [7] | uncleaved DNA left (log2) [8] | uncleaved DNA left (log2) [9] | uncleaved DNA left (log2) [10]
AGCAGTA | -0.0531 | 0.0128 | -0.06 | -0.187 | 0.0666 | 0.246 | -0.674 | -0.102 | -0.00167 | 0.0994
CCAGGAG | 0.251 | 0.23 | -0.234 | 0.476 | 0.22 | -0.568 | 0.37 | 0.379 | 0.13 | 0.266
AACCTCA | -0.0606 | -0.112 | 0.0219 | -1.79 | -0.0968 | -0.233 | -0.339 | -0.0956 | -0.0486 | 0.0227
TCACTAG | -0.104 | -0.0449 | -0.67 | -0.832 | 0.0835 | -1.37 | 0.155 | -0.0347 | 0.0401 | -0.103
GCAACGA | 0.0639 | -0.0335 | -0.0275 | 0.0178 | 0.0146 | -0.583 | 0.108 | -0.049 | 0.0159 | 0.0126
TAGGGCC | 0.0768 | 0.031 | 0.267 | 0.686 | 0.0111 | 0.886 | -0.0723 | 0.122 | 0.0207 | 0.0612
CTAATCG | -0.0151 | -0.0524 | -0.776 | 0.163 | 0.0435 | -0.989 | 0.159 | 0.0267 | 0.0964 | -0.0985

Source: the supplement of paper PMC7826260
